Results reported in publication PMC4336329 (PLoS ONE, 2015).
The whole screen tested about 310,000 compounds, of which about 2,200 (0.71%) showed an effect of 50% or more. Effects have a minus sign here. This is one part of the list.

Molecular target: human ether-à-go-go-related gene (hERG) potassium channel (human, UniProt Q12809)
Experiment: primary screen, population patch clamp on CHO cells stably expressing hERG

human ether-à-go-go-related gene (hERG) potassium channel, sequence (Q12809 whole entry, looked up): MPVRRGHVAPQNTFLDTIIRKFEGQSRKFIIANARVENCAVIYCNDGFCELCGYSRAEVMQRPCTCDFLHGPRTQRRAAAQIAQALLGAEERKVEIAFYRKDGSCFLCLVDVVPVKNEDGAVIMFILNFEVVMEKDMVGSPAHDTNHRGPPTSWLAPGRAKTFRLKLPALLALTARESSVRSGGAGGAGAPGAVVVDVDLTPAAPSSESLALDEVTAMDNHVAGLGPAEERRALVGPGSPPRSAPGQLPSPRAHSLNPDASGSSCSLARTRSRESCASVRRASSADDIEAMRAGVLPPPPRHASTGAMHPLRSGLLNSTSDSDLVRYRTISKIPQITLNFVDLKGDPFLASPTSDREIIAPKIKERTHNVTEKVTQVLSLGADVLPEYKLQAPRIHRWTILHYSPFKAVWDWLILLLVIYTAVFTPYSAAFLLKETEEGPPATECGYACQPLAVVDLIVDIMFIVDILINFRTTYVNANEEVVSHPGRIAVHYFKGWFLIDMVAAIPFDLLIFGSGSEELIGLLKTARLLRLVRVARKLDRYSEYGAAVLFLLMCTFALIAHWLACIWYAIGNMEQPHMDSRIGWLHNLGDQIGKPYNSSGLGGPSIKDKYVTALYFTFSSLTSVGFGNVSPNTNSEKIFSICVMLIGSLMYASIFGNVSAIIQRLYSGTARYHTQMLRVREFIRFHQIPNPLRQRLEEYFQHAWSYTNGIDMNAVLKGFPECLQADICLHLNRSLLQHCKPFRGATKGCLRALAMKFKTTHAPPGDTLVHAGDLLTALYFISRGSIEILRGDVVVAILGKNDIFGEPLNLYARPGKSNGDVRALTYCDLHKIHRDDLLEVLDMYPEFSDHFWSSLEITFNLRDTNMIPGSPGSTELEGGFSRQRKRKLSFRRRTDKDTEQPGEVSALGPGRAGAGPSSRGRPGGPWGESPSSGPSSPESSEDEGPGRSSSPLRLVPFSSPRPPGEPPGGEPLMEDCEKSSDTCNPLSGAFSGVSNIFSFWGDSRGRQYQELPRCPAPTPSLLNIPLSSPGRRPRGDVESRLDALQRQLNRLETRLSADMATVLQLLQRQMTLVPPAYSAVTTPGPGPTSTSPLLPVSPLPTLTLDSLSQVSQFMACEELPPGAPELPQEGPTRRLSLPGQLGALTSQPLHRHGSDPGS

| SMILES | hERG current change (%, negative = inhibition) at 1uM |
| --- | --- |
| Cc1ccc(C(=O)Nc2ccc3nccnc3c2)cc1 | 13.2% |
| O=C(CN1C(=O)NC2(CCCCC2)C1=O)N1CCN(S(=O)(=O)c2cccc([N+](=O)[O-])c2)CC1 | 9.25% |
| N#Cc1ccccc1NC(=O)Nc1cccs1 | 18% |
| Cn1c(Cn2cnc([N+](=O)[O-])n2)nnc1SCC(=O)Nc1ccc(Br)cc1 | 10.6% |
| O=C(Nc1ccc(Cl)cc1)C1CCCN1C(=O)NCc1ccccc1 (stereo not drawn) | 8.51% |
| CC1(c2nnc(Cc3ccccc3)o2)CC(c2ccc(F)cc2)=NO1 (stereo not drawn) | 6.99% |
| CCCc1c(C(=O)N/N=C/c2ccccc2OCc2ccc(F)cc2)nnn1-c1nonc1N | 12.4% |
| O=C(NCC(c1cccs1)N1CCOCC1)c1ccc(Cl)c(S(=O)(=O)N2CCOCC2)c1 (stereo not drawn) | -1.11% |
| Cc1ccc(S(=O)(=O)NCc2nc3ccccc3[nH]2)cc1 | 9.38% |
| COc1ccc2cc(C(N)=O)c(=Nc3ccc(C)cc3)oc2c1 | 8.43% |
| CCCn1c(SCC(=O)N2CCc3ccccc3C2)nc2c1c(=O)n(C)c(=O)n2C | -11.4% |
| COc1cccc(S(=O)(=O)NCc2ccc(C(=O)Nc3ccc(Cl)c(Cl)c3)cc2)c1 | -4.02% |
| COC(=O)[C@H](C)NC(=O)NC1CCCc2ccccc21 (stereo partly drawn) | -1.13% |
| O=C(Cc1ccccc1)N/N=C/c1cccc([N+](=O)[O-])c1 | 7.67% |
| Cc1oc(C(C)(C)C)cc1C(=O)N1CCN(c2ncccc2C(F)(F)F)CC1 | 8.29% |
| CCOC(=O)c1c(C)nc(C)c(C(=O)OCC)c1-c1ccc(Br)cc1 | -7.77% |
| CC(CCN1C(N(C)C)=NC[C@@H]1C)c1ccccc1 (stereo partly drawn) | 8.4% |
| CC(C)n1c(SCC(=O)Nc2ccccc2N2CCCCC2)nc2c1c(=O)n(C)c(=O)n2C | -0.548% |
| COC(=O)c1cc(C(=O)Nc2cc(C)ccn2)cc([N+](=O)[O-])c1 | 9.81% |
| C#Cc1cccc(-n2nnc(C(C)=O)c2C)c1 | 13.1% |
| C=CCn1c(SCC(=O)N(CC)C2CCS(=O)(=O)C2)nc2sc3c(c2c1=O)CCC3 (stereo not drawn) | -37.5% |
| CC(=O)O[C@H]1C[C@@H]2CC[C@@H]3[C@H](CC[C@@]4(C)[C@H]3C[C@H]([N+]3(C)CCCCC3)[C@@H]4OC(C)=O)[C@@]2(C)C[C@@H]1[N+]1(C)CCCCC1.[Br-] | 10.6% |
| CCC(CO)NC(=O)c1ccccc1C(F)(F)F (stereo not drawn) | 7.18% |
| CN(C(=O)Cn1nnc(-c2cccnc2)n1)C1CCCCC1 | 4.03% |
| O=C(CSc1oc(-c2cccs2)nc1S(=O)(=O)c1ccc(F)cc1)NCC1CCCO1 (stereo not drawn) | -9.44% |
| O=[N+]([O-])c1cc(/C=N/N2CCOCC2)cs1 | 12.7% |
| COc1ccc(-c2noc(CN3CCN(C(=O)c4cccs4)CC3)n2)c(OC)c1OC | 14.2% |

| SMILES | hERG current change (%, negative = inhibition) at 1uM |
| --- | --- |
| Cc1cccc(NC(=O)c2nc[nH]c2C(=O)N[C@@H](CC(C)C)C(=O)OCc2ccccc2)c1 | 13.6% |
| CC(C)CC(C(=O)Nc1ccc2c(c1)OCCO2)N1C(=O)c2ccccc2C1=O (stereo not drawn) | -0.948% |
| Cc1ccc2c(c1)N(CC(=O)NCCCN1CCN(C)CC1)C(=O)CO2 | 6.68% |
| C=CCNC(=O)/C(=C\c1ccc(Br)cc1)NC(=O)c1ccccc1OC | -3.85% |
| CC(=O)OCCCN(C)CC/C=C1/c2ccccc2CSc2ccccc21.Cl | 5.71% |
| CCOc1ccc(C(NC(=O)CC)c2c(O)ccc3ccccc23)cc1 (stereo not drawn) | 12.5% |
| CSc1cc(-c2ccc(Cl)cc2)c(C(=O)N2CCCC2)s1 | -4.99% |
| O=C(Nc1ccccc1)OCC1CCCN2CCCCC12 (stereo not drawn) | -10.9% |
| O=C(COC(=O)c1cncc(Br)c1)NCC1CCCO1 (stereo not drawn) | 9.97% |
| CCOC(=O)N1CCC(NS(=O)(=O)c2ccc3c(c2)OCC(=O)N3)CC1 | 13% |
| CCN(CC)CCCNC(=O)c1ccc(Cl)c(S(=O)(=O)Nc2ccccc2OC)c1.Cl | -6.4% |
| Cc1ccc(N2C(=O)C3C=NNC3C2=O)cc1 (stereo not drawn) | 11.4% |
| C/C(N)=C(/C#N)C(=O)COC(=O)CNS(=O)(=O)c1c(F)cccc1F | 0.981% |
| Cc1c([N+](=O)[O-])ccc(S(=O)(=O)N2CCC(C(N)=O)CC2)c1C | 2.95% |
| Fc1ccc2c(Cl)c(-c3nnc(-c4cccs4)o3)sc2c1 | 18.4% |
| CCCc1nc2oc3c(OCC)ncnc3c2c2c1COC(C)(C)C2 | -3.2% |
| CCn1cc(CCCC(=O)NCc2ccccc2OC)c2ccccc21 | 13.6% |
| CCOc1ccc(N2CC(NC(=O)c3cccc4ccccc34)CC2=O)cc1 (stereo not drawn) | 8.27% |
| O=C(N/N=C/c1cc(Cl)cc([N+](=O)[O-])c1O)c1ccccc1NS(=O)(=O)c1cccs1 | 10.9% |
| COC(=O)c1cccn(CC(=O)c2ccc(Cl)cc2)c1=O | 8.52% |
| O=C(c1cccc(S(=O)(=O)N2CCc3ccccc32)c1)N1CCCC(C(F)(F)F)C1 (stereo not drawn) | -3.12% |
| COC(=O)c1sccc1NC(=O)c1cc(-c2ccc(C)cc2)nc2ccccc12 | 19.9% |
| O=C(O)C1CCCCC1C(=O)NCCc1ccccc1 (stereo not drawn) | 8.23% |
| CN(C(=O)c1ccc(NC(=O)Cc2ccc(NC(=O)C3CCN(C(=O)CCc4ccccc4)CC3)cc2)cc1)C1CC1 | 10.6% |
| COc1ccc2c(C(=O)c3ccc(C)cc3)n(CCC(N)=O)[n+]([O-])c2c1 | 3.3% |
| CC(=O)Oc1ccccc1N1C(=O)c2ccc(C(=O)O)cc2C1=O | 12.5% |
| CCOC(=O)Cn1c(=O)c2c(nc(Br)n2Cc2ccc(Cl)cc2)n(C)c1=O | -13.7% |
